# Values joined by “and” are separate entries in the source; they are usually repeats but may differ in a detail not shown here. Identical values can stand only once. Whole data set: some 13,000 compounds, median “IFI” near 4, cut for the highest 2% near 17. Some of the results follow.
# Test: GSK_TCMDC: Inhibition Frequency Index (IFI). The number of non-kinase HTS assays where a compound showed > 50 % inhibition, expressed as a percentage of the number of such assays in which the compound was tested (-0 is zero)
# Type: functional
row,SMILES,IFI
1,COc1ccc(CNCc2ccc(-c3ccc(-c4nc5cc(C(F)(F)F)ccc5[nH]4)s3)cc2)cc1,11.5%
2,COc1cc(-c2nc(-c3ccc([N+](=O)[O-])cc3)c(-c3ccccc3)[nH]2)cc(OC)c1O,3.5%
3,COc1cc2nc(NCCCN3CCCCC3)nc(NCc3ccccc3)c2cc1OC,4.76%
4,COc1cccc(O)c1CN1CCC2(CCCN(Cc3ccc(F)cc3)C2)C1 (stereo not given),2.44%
5,Cc1cccc2c1NC(=O)/C2=N/NC(=S)N(C)C,9.52%
6,COc1ccc(NC(=O)/C=C/c2ccc(Cl)c(C(F)(F)F)c2)cc1OCCN(C(C)C)C(C)C,7.41%
7,O=C(NCCCN1CCOCC1)c1cccc(Nc2nccc(Nc3ccc(Oc4ccccc4)cc3)n2)c1,8.51%
8,CCOc1c(OC)ccc2c1CCN(CCN1CCC(NC(=O)c3ccc(-c4cccc(C(F)(F)F)c4C(F)(F)F)cc3)CC1)C2,6.92%
9,Cc1ccc(CN2CCN(c3cc4c(cc3Cl)CCN4C(=O)Cc3ccc(Cl)c(NC(=O)Nc4cccc(C#N)c4)c3)CC2)cc1,0.8%
10,N#Cc1ccc(CNCCCCCCCNCc2ccc(-c3ccccc3)cc2)cc1,5%
11,CC1(C)CC2CC(C)(CN2C(=O)c2cc(C(C)(C)C)nn2Cc2ccccc2)C1 (stereo not given),5.36%
12,COc1ccc(S(=O)(=O)NC2CCN(c3ccc(C(F)(F)F)cc3NC(=O)OCC(C)C)CC2)cc1,-0%
13,CC(C)c1ccc(NC(=O)Nc2ccc(Cn3ncc(N4CCCNCC4)c(Cl)c3=O)cc2)cc1,11.6%
14,CN(C)CCNCc1nc(-c2ccc3c(Nc4ccc(Cl)cc4F)ccnc3c2)cs1,3.6%
15,CC(=O)Nc1cccc(C(=O)Nc2cccc(-c3ccc(-c4nc5cc(C(F)(F)F)ccc5[nH]4)s3)c2)c1,6.03%
16,COc1ccc(C2C(C(=O)Nc3ccc4c(c3)OCO4)c3cc(OC)c(OC)cc3C(=O)N2C)cc1 (stereo not given),-0%
17,CC(C)Oc1cc(-c2ccc(S(C)(=O)=O)cc2)nc(N(Cc2cccc(F)c2F)Cc2cccc(F)c2F)n1,-0%
18,O=C1C(c2ccccc2)=C(Nc2ccc(OC(F)(F)F)cc2)c2ccccc21,0.76%
19,CC(C)CC(=O)N1CCNC[C@@H]1C(=O)NCCSCc1c(F)cccc1Cl,0.7%
20,CN(Cc1cccc(F)c1)C1CCN(c2cc(NC(=O)c3cccc(F)c3)ccn2)CC1,-0%
21,COC(=O)c1ccc(OCC(O)CO)cc1O (stereo not given),-0%
22,Cc1nc2ccc3ccc(CNc4ccc(C(=O)N[C@@H](CCC(=O)O)C(=O)N[C@@H](Cc5cccs5)C(=O)O)c(F)c4)cc3c2c(=O)[nH]1,1.56%
23,COC(=O)c1cccc(CNCc2cccc(-c3ccc(-c4nc5ccccc5[nH]4)cc3)c2)c1,7.84%

row,SMILES,IFI
1,Cc1cc(NC(=O)c2cccs2)ccc1OC1CCN(Cc2ccccc2)CC1,3.33%
2,NC(=O)c1cc2nc(Nc3ccc(F)cc3)nc(Nc3ccc(S(N)(=O)=O)cc3)c2[nH]1,4.76%
3,Cc1cc(N(C)C)nc(Nc2ccc(NC(=O)c3ccc(Br)o3)cc2)n1,1.96%
4,Nc1ncc(-c2ccc3ncccc3c2)c(N)n1,2.67%
5,COc1ccc(CCNC(=O)c2ccccc2O)cc1-c1ccc(C(C)(C)C)cc1,3.91%
6,O=C1OC(c2ccccc2)(c2ccccc2)CN1CC1CCN(Cc2ccc(O)c(Cl)c2)CC1,7.87%
7,Cn1cc(CN2CCCC(COC(c3ccc(F)cc3)c3ccc(F)cc3)C2)cn1 (stereo not given),4.62%
8,CCCCN1CCN(CCCNc2c3ccccc3nc3ccccc23)CC1,5.63%
9,COc1ccc(CN2CCC(NCc3ccc(C(F)(F)F)cc3)CC2)cc1,4.7%
10,CC(=NNC(=N)N)c1ccc2ccc3ccccc3c2c1,4.38%
11,CCOC(=O)N1CCC(NC(=O)c2ccc(C(C)(C)C)cc2OC)CC1,0.75%
12,COc1ccc(NC(=O)NC2CCN(CCCCCNC(=O)/C=C/c3ccc(Cl)c(Cl)c3)CC2)cc1,2.01%
13,CN1CCN(c2ccc(Nc3c(C(N)=O)cnc4cc(-c5ccoc5)ccc34)cc2C(F)(F)F)CC1,4.2%
14,O=c1cc(NCCCNCc2ccc(Cl)c(Cl)c2)[nH]c2ccc(Cl)cc12,4.14%
15,Cn1nc(-c2ccc(NC(=O)Nc3cc(C(F)(F)F)cc(C(F)(F)F)c3)c(F)c2)c2cnc(NCCN3CCOCC3)nc21,2.88%
16,c1ccc2cc3c(NCCN4CCOCC4)ccnc3cc2c1,0%
17,O=C(N1CCN(c2ccc(C(F)(F)F)cc2[N+](=O)[O-])CC1)C(Cl)(Cl)Cl,3.96%
18,CCn1nc(C(=O)NC2CCOc3ccccc32)c2ccccc2c1=O (stereo not given),2.04%
19,COc1ccc(N2CCN(CCCC/C=C/c3ccc(NC(=O)c4cc(Cl)cc(Cl)c4)cc3)CC2)c(OC)c1,2.65%
20,c1cc(Cc2ccc(Nc3c4ccccc4nc4ccccc34)cc2)cc(Nc2c3ccccc3nc3ccccc23)c1,5.22%
21,Cc1c(C(=O)C2CC2CN2CCC(N3CCCC3)CC2)sc2ccccc12 (stereo not given),4.85%
22,Cc1ccc(NC(=N)Nc2ncccc2OCc2c(F)cccc2Cl)cc1,22%
23,COc1ccc(C=NN=c2cc(C)[nH]c3ccccc23)c(OC)c1,6.62%

row,SMILES,IFI
1,O=C(c1ccc(-c2ccccn2)s1)N1CCc2cc3nccc(N4CCN5CCC[C@H]5C4)c3cc21,2.99%
2,COC(=O)c1ccc(NC(=O)Nc2cccc(CCNCc3ccccc3)c2)cc1,3.55%
3,COCCn1c(C)cc(C(=O)CN2C(=O)NC(C)(c3ccc(C(C)(C)C)cc3)C2=O)c1C (stereo not given),10.1%
4,CCn1cnc2c(Nc3cccc([N+](=O)[O-])c3)nc(N3CCC(N4CCCCC4)CC3)nc21,7.69%
5,Cc1ccccc1C1CCN(C2CCC(NC(=O)/C=C/c3cccc(F)c3F)CC2)CC1 (stereo not given),8.33%
6,Clc1nc(Cl)c2c(ccn2Cc2ccccc2)n1,0.74%
7,Cc1cc(Nc2ccncc2)n2nc(C)c(-c3ccc(Cl)cc3)c2n1,1.69%
8,COc1cc(Cc2cnc(N)nc2N)ccc1OCc1ccc(F)c(F)c1,3.52%
9,CCC(CC)(Cc1ccccc1)NC(=O)[C@H](CC1CCCCC1)Nc1ccc(C#N)c2ccccc12,0.95%
10,Cc1cc(N[C@@H](CC(C)C)C(=O)NCc2cccc(F)c2)nc(Nc2ccccc2)n1,-0%
11,CCN(CC)CCN(Cc1ccc(-c2ccc(C(F)(F)F)cc2)cc1)C(=O)Cn1c(CCc2ccc(F)cc2)nc(=O)c2ccccc21,8.21%
12,O=C(Nc1cccc(C2=NCCN2)c1)Nc1cccc(C2=NCCN2)c1,0.72%
13,COc1cc(NC(=O)c2cc3c(C)nn(-c4cccc(C(F)(F)F)c4)c3s2)cc(OC)c1OC,0.71%
14,CC(=O)Nc1nc(C(=O)Nc2ccc(-c3cccc(-c4nc5cccc(C)c5[nH]4)c3)cc2)cs1,6.03%
15,COC(=O)c1cccc(NC(=O)NCCNc2ccnc(Nc3ccc(F)cc3)n2)c1,4.62%
16,O=C(NC1CCCCN(Cc2ccccc2O)C1)c1cccc(Cl)c1 (stereo not given),2.04%
17,CCCOc1c(CCNCCCCNCCc2ccc3ccccc3c2OCCC)ccc2ccccc12,14.7%
18,CC(CNc1nc(NCC(c2ccccc2)c2ccccc2)c2nc[nH]c2n1)c1ccccc1 (stereo not given),4.55%
19,OCC(CO)(CO)NCc1ccc2c3c(cccc13)-c1ccccc1-2,6.06%
20,CCc1c(C)nc2nc(Cc3cccc(F)c3)nn2c1N1CCN(c2ccccn2)CC1,-0%
21,CCCCn1c(N)c(N(Cc2ccco2)C(=O)C=Cc2cc(OC)c3c(c2)OCCO3)c(O)nc1=O,1.22%
22,O=C(Nc1ccc(Cn2ncc(N3CCCNCC3)c(Cl)c2=O)cc1)Nc1ccc(-c2ccccc2)cc1,6.16% and 10.3%
23,COc1cc2c(cc1S(=O)(=O)c1ccc(NC(=O)c3cc4ccccc4s3)cc1)CCN(C)CC2,10.5%

row,SMILES,IFI
1,CCCc1cc(OC)c(CC2c3cc(O)c(C)cc3CCN2C)cc1OC (stereo not given),1.42%
2,COc1cc(OC)cc(C(=O)N2CCOC(CCN3CCC(c4ccccc4)CC3)(c3ccc(Cl)c(Cl)c3)C2)c1 (stereo not given),6.21%
3,COc1ccc(CC(=O)NC(CCN2CCC3(CCc4ccccc43)CC2)c2ccc(Cl)c(Cl)c2)cc1 (stereo not given),6.94%
4,Cc1noc(C)c1-c1cccc(CNCc2cccc(-c3cccc(-c4nc5cc(C(F)(F)F)ccc5[nH]4)c3)c2)c1,5.83%
5,COc1ccc(NC(=O)C2c3ccccc3C(=O)N(C3CCCC3)C2c2cccs2)c(OC)c1 (stereo not given),5%
6,CCOc1cc2c(cc1OCC)C(c1cc(OC)c(O)cc1Cl)NCC2 (stereo not given),3.25%
7,CC(Cc1ccc(CNC(=O)c2ccc(CC(C)NCCc3cccc(Cl)c3)cc2)cc1)NCCc1cccc(Cl)c1 (stereo not given),7.09%
8,COc1ccc2ncc(F)c(CCN3CCC(NCc4cc5c(cn4)OCCS5)CC3)c2c1,3.65%
9,Cc1onc(-c2c(Cl)cccc2Cl)c1C(=O)N1CCc2cc3nccc(N4CCN5CCC[C@H]5C4)c3cc21,2.26%
10,O=S(=O)(NCCN1CCCC1)c1ccc(-c2cccc(CNCCc3cccs3)c2)cc1,9.52%
11,O=C(Nc1ccncc1)c1cc(C(=O)Nc2ccncc2)cc([N+](=O)[O-])c1,1.52%
12,N=C(N)NN=Cc1c2ccc(Cl)cc2c(Cl)c2ccc(Cl)cc12,4.51%
13,c1cc(CN2CCN(CCN3CCOCC3)CC2)cc(-c2csc(-c3nc4ccccc4[nH]3)c2)c1,1.39%
14,O=C(Nc1ccccc1)Nc1cccc(-c2cccc(-c3nc4cc(F)ccc4[nH]3)c2)c1,3%
15,Cc1cc(N[C@@H](CC(C)C)C(=O)NCCc2ccccc2)nc(NCC2CCCCC2)n1,16.3%
16,Oc1ccc(Cl)cc1-c1cc(C(F)(F)F)nc(-c2ccccc2)n1,0.72%
17,CCNc1cc(C(=O)NC(Cc2ccccc2)C(O)CNC2CCSCC2)cc(N2CCCC2=O)c1 (stereo not given),-0%
18,CN(C)C(=O)c1ccc(CN(Cc2cccc(OC(C)(C)C)c2)Cc2ccc3c(c2)OCCO3)cc1,3.13%
19,CCc1ccc(CN2CCC(CNC(=O)c3cc(-c4ccccc4F)cs3)C2)cc1 (stereo not given),10.2%
20,CC(CCc1ccc(OCc2ccccc2)cc1)NCC(O)c1ccccc1 (stereo not given),9.56%
21,Cc1ccc(NC(=S)NC2CCN(CCCCCNC(=O)/C=C/c3ccc(Cl)c(Cl)c3)CC2)cc1Cl,11.1%
